Laboratory results from the supplement of paper PMC7826260.
The other results are listed elsewhere or left out. The data describe in vitro nicking of single-stranded DNA by Rep domains (3 µM enzyme, 1 h, 37 °C); shown is the middle of each 90-letter strand. Values are log2 of uncut reads against the no-enzyme pool; more negative means more cut, near 0 not cut, and no call is made. Shares of all reads are compared; values above 0 arise when much of the pool is cut.

System: T1, Rep nickase domain of tomato golden mosaic virus
T1 sequence (Rep 1-124, printed without the tag): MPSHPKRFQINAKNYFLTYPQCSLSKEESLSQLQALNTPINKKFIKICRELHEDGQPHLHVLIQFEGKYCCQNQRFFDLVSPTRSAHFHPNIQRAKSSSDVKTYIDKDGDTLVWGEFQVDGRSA
Assay: uncleaved DNA left, log2 of reads against the no-enzyme library (log2 ratio); higher = less cleavage (more negative = more Rep cleavage of the k-mer); sequences stand for … in CTCGTCCG…ACCGGAGA
Description: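 A pool of 90-nt single-stranded DNAs with seven random bases just before the constant AC of the nick site (name = the seven bases) was cut by 3 µM recombinant His6-SUMO-tagged Rep nickase domain (300 nM DNA, 50 mM HEPES pH 8.0, 50 mM NaCl, 1 mM MnCl2, 1 h, 37 °C, three replicates). Uncut DNA was amplified and sequenced.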

Row | Sequence | uncleaved DNA left (log2)
1 | ACTAACC | 0.0795
2 | TAGGAAG | 0.123
3 | GGTGCCT | -0.0262
4 | TCTGGAG | 0.0165
5 | CTGGCGC | 0.0343
6 | GCCAGGA | 0.00172
7 | TCAACGC | 0.116
8 | CAATCCC | -0.826
9 | TACGATG | -0.175
10 | CTCGACA | -0.12
11 | GGACTCG | -0.0304
12 | GCGGAGA | 0.124
13 | CTTAGCC | -0.0828
14 | ACTAGCG | -0.042
15 | TTGAAGT | 0.00235
16 | GCCATTG | 0.0612
17 | TCTGAAG | -0.0932
18 | CCGGAAC | 0.138
19 | GAAATTC | -0.00358
20 | TTTAGAG | 0.0808

Row | Sequence | uncleaved DNA left (log2)
21 | CAAGGCC | 0.034
22 | ACGGCTA | -0.118
23 | TTTGAGG | 0.131
24 | CTGAGAC | -0.213
25 | AAGTAAC | -0.0201
26 | GAGCCGT | 0.0346
27 | GCGCATT | -0.146
28 | TGTTGGC | -0.0533
29 | GACATCG | 0.0166
30 | CTTAACA | 0.0759
31 | CAGATCA | -0.0381
32 | AAATGTG | 0.012
33 | TCTGGGA | -0.0956
34 | ACGACTA | 0.123
35 | CAGTTAA | 0.106
36 | AAGGGCC | 0.192
37 | CAACATA | -0.166
38 | AGCGATA | 0.142
39 | GTTGCTG | -0.0148
40 | TCGAGTG | 0.208
